In PubChem BioAssay AID485294 (National Center for Advancing Translational Sciences (NCATS), 2010):
The whole screen tested about 370,000 compounds, of which about 150 (0.041%) were called active. Inconclusive results, whose numbers are uncertain, are shown with a selection of clear calls. The call rests on the fitted dose curve; in most records, active means well fitted inhibition curve with a large enough effect; inconclusive means small, poorly fitted or top-dose-only effect; inactive means flat fitted curve, though single readings scatter. Potencies of inconclusive entries are left out as doubtful fits.

target: Beta-lactamase (Escherichia coli (strain K12)) (UniProt P00811); test: qHTS Inhibitors of AmpC Beta-Lactamase (assay with detergent); conditions: AmpC hydrolysis of nitrocefin, absorbance 480 nm, 0.01% Triton; series mostly up to 114 µM; further: nearly all actives have a fitted effect of over 25% in size
Procedure, shortened: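 AmpC (5.3 nM in the dispensed reagent) in 20 mM phosphate pH 7.0 with 0.01% (detergent screen) or 0.0001% Triton X-100 was preincubated with compounds for 15 min at room temperature. Nitrocefin was then added from an 800 uM solution, and hydrolysis was followed at 480 nm.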
Potency means the concentration at half of the fitted maximal effect; tags describe the fitted curve by direction and shape.

Chain of UniProt P00811 (P00811 whole entry, looked up): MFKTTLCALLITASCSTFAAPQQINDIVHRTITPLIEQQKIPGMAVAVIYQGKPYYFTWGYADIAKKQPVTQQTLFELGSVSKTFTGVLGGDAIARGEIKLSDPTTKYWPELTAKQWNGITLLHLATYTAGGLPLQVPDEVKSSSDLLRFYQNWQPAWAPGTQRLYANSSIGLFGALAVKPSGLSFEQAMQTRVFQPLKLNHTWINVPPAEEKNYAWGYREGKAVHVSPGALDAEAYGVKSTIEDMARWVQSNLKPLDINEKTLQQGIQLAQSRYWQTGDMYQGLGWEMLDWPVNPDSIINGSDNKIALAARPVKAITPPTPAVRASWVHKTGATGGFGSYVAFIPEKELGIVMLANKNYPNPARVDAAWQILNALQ

Q: How did the Potency turn out when `CC(C)CC(=O)Nc1cc2c3c(c1)C(C)C(=O)N3CCC2` (stereo not given) was run?
A: inactive

Q: Which Potency does the source give for `CC(=O)c1ccc(Nc2nc(N3CCOCC3)nc(N3CCOCC3)n2)cc1` here?
A: inactive

Q: `O=C(CSc1cccc2cccnc12)N1CCCC1` was tested. Which Potency did it give?
A: inactive

Q: For `Cc1onc(-c2ccccc2Cl)c1C(=O)NC(=S)NCCc1ccccc1`, which Potency is on record?
A: inconclusive [inhibitor, full curve, poor fit]

Q: Which Potency does the source give for `Cc1cccc(C(=O)N2CCc3cc(-c4nc(NC(=O)Cn5nnc6ccccc6c5=O)sc4C)ccc32)c1` here?
A: inactive

Q: With `O=C(COC(=O)CN1C(=O)NC2(CCCC2)C1=O)Nc1c(Cl)cccc1C(F)(F)F` as the compound, how does the Potency read?
A: inconclusive [inhibitor, full curve, poor fit]

Q: Which Potency does the source give for `COC(=O)c1ccc(NC(=O)c2cccc(N3C(=O)CCC3=O)c2)cc1` here?
A: inactive

Q: For `CCOC(=O)Cn1c2c(c(=N)c3ccccc31)CCC2`, which Potency is on record?
A: inactive

Q: With `CC1CCc2sc(C(=O)Nc3nnc(SCc4ccc(F)cc4)s3)cc2C1` (stereo not given) as the compound, how does the Potency read?
A: inconclusive [inhibitor, full curve, poor fit]

Q: With `COc1cc(OC)cc(C(=O)Nc2ccc(-n3cnnn3)c(C)c2)c1` as the compound, how does the Potency read?
A: inconclusive [inhibitor, partial curve, poor fit]

Q: With `S=C(NN=C1C2CC3CC(C2)CC1C3)Nc1ccccc1` as the compound, how does the Potency read?
A: inconclusive [inhibitor, single point]

Q: With `COc1ccc(NC(=O)CN(C)C(=O)c2cc(S(=O)(=O)N(C)C)ccc2N2CCCC2)cc1` as the compound, how does the Potency read?
A: inconclusive [inhibitor, partial curve]

Q: For `Cc1cc(OCCCn2ccnc2)cc(C)c1Cl`, which Potency is on record?
A: inconclusive [inhibitor, full curve]

Q: How did the Potency turn out when `CN(C)C(=O)c1ccc(Nc2ncnc3sc4c(c23)CCCCC4)cc1` was run?
A: inconclusive [inhibitor, full curve, poor fit]

Q: With `O=c1[nH]c(=S)[nH]c(O)c1N=Nc1ccc(OC(F)F)cc1` as the compound, how does the Potency read?
A: inactive

Q: Which Potency does the source give for `O[C@@H](c1cc(C(F)(F)F)nc2c(C(F)(F)F)cccc12)[C@H]1CCCCN1` here?
A: inconclusive [inhibitor, partial curve]

Q: With `Cc1oc2cc3oc(=O)c(CC(=O)N[C@@H](C)C(=O)NC(Cc4ccc(Cl)cc4)C(=O)O)c(C)c3cc2c1C` (stereo not given in full) as the compound, how does the Potency read?
A: inconclusive [inhibitor, partial curve]

Q: Which Potency does the source give for `O=c1oc2ccc3ccccc3c2cc1-c1nnc(Nc2ccc(F)cc2)s1` here?
A: inactive

Q: With `Cc1ccccc1OCCC(=O)OCC(=O)Nc1c(F)cccc1F` as the compound, how does the Potency read?
A: inactive

Q: Which Potency does the source give for `CC(=O)c1ccc(C(=O)NC2CCCN(Cc3ccccc3F)C2)cc1` (stereo not given) here?
A: inactive

Q: With `COc1ccccc1CN(C)C(=O)c1ccc(S(=O)(=O)NCc2ccco2)cc1` as the compound, how does the Potency read?
A: inconclusive [inhibitor, full curve]

Q: How did the Potency turn out when `O=C(OCc1ccc(F)cc1)c1cc2ccccc2cc1O` was run?
A: inactive

Q: How did the Potency turn out when `COc1ccc(-c2nnc3ccc(SCC(=O)N4CCCCC4)nn23)cc1OC` was run?
A: inconclusive [inhibitor, full curve]

Q: How did the Potency turn out when `O=C(CSc1ncnc2c1cnn2CCc1ccccc1)Nc1cccc(C(F)(F)F)c1` was run?
A: inconclusive [inhibitor, full curve, poor fit]

Q: How did the Potency turn out when `Cc1noc2nc(-c3cccs3)cc(-c3nnc4n3CCCCC4)c12` was run?
A: inconclusive [inhibitor, full curve, poor fit]

Q: How did the Potency turn out when `CCN(CC)c1ccc(NC(=O)c2cc3ccccc3o2)c(C)c1` was run?
A: inactive

Q: Which Potency does the source give for `C/C(CC(=O)Nc1cc(Cl)ccc1Cl)=N\NC(=O)c1ccco1` here?
A: inconclusive [inhibitor, partial curve, poor fit]

Q: With `O=[N+]([O-])c1cc(N=Nc2ccc3ccccc3c2)ccc1O` as the compound, how does the Potency read?
A: inconclusive [inhibitor, full curve]

Q: With `COc1ccccc1/C=C1/SC(=S)N(CCC(=O)Nc2cccnc2)C1=O` as the compound, how does the Potency read?
A: inactive

Q: `CCN(CC)c1nc2c(c(=O)[nH]c(=O)n2C)n1CCOc1ccccc1` was tested. Which Potency did it give?
A: inconclusive [inhibitor, full curve, poor fit]

Q: How did the Potency turn out when `C#CCNc1nc(C(C)C)nc2c1nnn2Cc1ccccc1F` was run?
A: inconclusive [inhibitor, full curve, poor fit]

Q: `CC1=Nc2cc(C(=O)NCCCN3CCOCC3)ccc2Sc2c(C)ccc(C)c21` was tested. Which Potency did it give?
A: inactive

Q: `CCOC(=O)C1(CCOc2ccccc2)CCN(Cc2ccc3nonc3c2)CC1` was tested. Which Potency did it give?
A: inactive

Q: How did the Potency turn out when `Nc1c(N2CCCC2)cc(Cl)c2nonc12` was run?
A: inconclusive [inhibitor, full curve, poor fit]

Q: Which Potency does the source give for `Cc1ccc(S(=O)(=O)Nc2nc3n(n2)C(c2ccc(F)cc2)C=C(c2ccccc2)N3)cc1` (stereo not given) here?
A: inactive

Q: Which Potency does the source give for `CC(C)[C@H](NC(=O)c1ccccc1Cl)C(=O)OCc1cc([N+](=O)[O-])cc2c1OCOC2` here?
A: inconclusive [inhibitor, full curve]

Q: For `N#CCSc1nnc2c(Cl)cc(Cl)cn12`, which Potency is on record?
A: inconclusive [inhibitor, full curve]

Q: Which Potency does the source give for `CCN1CCN(Cc2ccc(NC(=O)c3cc(NC(=O)c4cnnc5ccccc45)cc(OC)c3)cc2C(F)(F)F)CC1` here?
A: inactive

Q: With `CCCCn1c(N)c(N(CC(C)C)C(=O)C2CC(=O)N(Cc3ccccc3)C2)c(=O)[nH]c1=O` (stereo not given) as the compound, how does the Potency read?
A: inactive

Q: `CC(=O)Nc1ccc(S(=O)(=O)NCC2CCC(C(=O)NCCN(CC(C)C)CC(C)C)CC2)cc1` (stereo not given) was tested. Which Potency did it give?
A: inactive

Q: For `Cc1cccc([C@@H]2[C@@H]3C(=O)N(Cc4ccccc4)C(=O)[C@@H]3[C@]3(Cc4ccccc4)C(=O)N(c4cccc(Cl)c4)C(=O)N23)c1`, which Potency is on record?
A: inconclusive [inhibitor, single point]

Q: For `CC1Oc2ccccc2C=C1/C=N/NC(=O)c1ccccc1` (stereo not given), which Potency is on record?
A: inactive

Q: With `COc1ccc(-n2nnc3c(SCC(=O)Nc4ccc5c(c4)OCCO5)ncnc32)cc1` as the compound, how does the Potency read?
A: inactive

Q: `CCc1cccc(C)c1N1C(=O)CN(Cc2ccccc2)C1=S` was tested. Which Potency did it give?
A: inconclusive [inhibitor, partial curve, poor fit]

Q: `CCOCCCNC(=O)C1(O)c2ccccc2NC(=O)N1c1ccc(Cl)c(Cl)c1` (stereo not given) was tested. Which Potency did it give?
A: inactive

Q: Which Potency does the source give for `COc1ccc([C@H]2[C@H](C(=O)OC(C)(C)C)N3N=Cc4ccccc4C3C23C(=O)c2ccccc2C3=O)cc1OC` (stereo not given in full) here?
A: inactive

Q: For `O=C(Nc1ccc(F)cc1)Nc1ccc(S(=O)(=O)N2CCCC2)cc1`, which Potency is on record?
A: inactive

Q: `Cc1ccc2nccc(C(=O)N3CCCC(Nc4ccc(F)cc4)C3)c2c1` (stereo not given) was tested. Which Potency did it give?
A: inconclusive [inhibitor, partial curve, poor fit]

Q: Which Potency does the source give for `O=C(COc1ccc(Br)cc1)NCCO` here?
A: inactive

Q: With `CN(CC(=O)NCc1ccco1)S(=O)(=O)c1cccc2cccnc12` as the compound, how does the Potency read?
A: inconclusive [inhibitor, partial curve]

Q: Which Potency does the source give for `Cc1nnc(SCC(=O)NNC(=O)c2ccco2)s1` here?
A: inconclusive [inhibitor, full curve, poor fit]

Q: With `CCc1ccc(OCC(=O)N/N=C(\C)c2ccc(OC(F)F)cc2)cc1` as the compound, how does the Potency read?
A: inconclusive [inhibitor, partial curve]

Q: `Cc1nnsc1C(=O)Nc1ccc(S(=O)(=O)N2CCCCC2C)cc1` (stereo not given) was tested. Which Potency did it give?
A: inactive

Q: `CCN(CC)C(=O)CSc1nc(N)c(C(=O)Nc2ccc(OC)cc2)s1` was tested. Which Potency did it give?
A: inconclusive [inhibitor, full curve, poor fit]

Q: How did the Potency turn out when `Cc1sc(=NC(=O)c2ccco2)n(C)c1-c1ccc(Cl)cc1` was run?
A: inconclusive [inhibitor, single point]

Q: For `COc1ccc(/C=N/Nc2ccc([N+](=O)[O-])cc2)cc1O`, which Potency is on record?
A: inactive

Q: `COc1ccc(NC(=O)/C(=C\c2cccnc2)NC(=O)c2cccs2)cc1` was tested. Which Potency did it give?
A: inconclusive [inhibitor, full curve, poor fit]

Q: `CC(C)c1ccc2oc(-c3ccc(N)cc3)nc2c1` was tested. Which Potency did it give?
A: inactive

Q: `C#CCOCCOCCOCCNc1nc(N2CCN(C(=O)[C@H](C)n3cc(CCCN=C(N)N)nn3)CC2)nc(N2CCN(C(=O)[C@H](CCCCN)n3cc(CCCC)nn3)CC2)n1` was tested. Which Potency did it give?
A: inconclusive [inhibitor, partial curve, poor fit]

Q: How did the Potency turn out when `Cc1cccc(C)c1NC(=O)c1sc(-n2nc(C)c(Cc3ccccc3)c2C)nc1C` was run?
A: inactive

Q: `CCOC(=O)c1c(C)[nH]c(C(=O)COC(=O)C2CC2)c1C` was tested. Which Potency did it give?
A: inconclusive [inhibitor, full curve, poor fit]

Q: Which Potency does the source give for `Cc1ccc(N=C2NC(=O)/C(=C/C=C/c3ccco3)S2)cc1C` here?
A: inconclusive [inhibitor, full curve, poor fit]

Q: How did the Potency turn out when `CCOC(=O)c1ccccc1NC(=O)CSc1nccn1Cc1ccco1` was run?
A: inactive

Q: For `COC(=O)c1c(NC(=O)CC2SCC(C(=O)OC)NC2=O)sc2c1CCCC2` (stereo not given), which Potency is on record?
A: inconclusive [inhibitor, full curve, poor fit]

Q: How did the Potency turn out when `CC1CCN(CC(=O)Nc2ccc(S(=O)(=O)N3CCC(C)CC3)cc2)CC1` was run?
A: inconclusive [inhibitor, partial curve, poor fit]

Q: `Cc1ncc(CSc2nc3ccccc3[nH]2)c(N)n1` was tested. Which Potency did it give?
A: inconclusive [inhibitor, single point]

Q: How did the Potency turn out when `CCOC(=O)N1CCN(C(=O)CSc2nc(=O)n3cc(C)ccc3n2)CC1` was run?
A: inconclusive [inhibitor, partial curve]

Q: Which Potency does the source give for `S=C(Nc1ccc2[nH]ccc2c1)NC1CCCCC1` here?
A: inactive

Q: How did the Potency turn out when `CC(/C=C/c1ccccc1)=N\NC(=O)c1ccc2c(c1)OCCO2` was run?
A: inconclusive [inhibitor, single point]

Q: `O=C1Nc2ccc(S(=O)(=O)N3CCCC3)c3ccc(S(=O)(=O)N4CCCC4)c1c23` was tested. Which Potency did it give?
A: inconclusive [inhibitor, partial curve, poor fit]
